# Laboratory results from PubChem BioAssay AID686971 (National Center for Advancing Translational Sciences (NCATS), 2013).
# About 7,500 (2.1%) of roughly 360,000 compounds were called active. This list was built around the results that the source calls inconclusive (neither active nor inactive); the mix of calls is not that of the screen. The call rests on the fitted dose curve; in most records, active means well fitted cell-killing curve with a large enough effect; inconclusive means small, poorly fitted or top-dose-only effect, or effect the other way, or another doubt; inactive means no such curve, though single readings can be large or run the other way. Potencies of inconclusive entries are left out as doubtful fits.
# Test: qHTS for induction of synthetic lethality in tumor cells producing 2HG: qHTS for the HT-1080-IDH1KD cell line
# Conditions: HT-1080 IDH1 knockdown viability, ATP luminescence, 48 h; series mostly up to 46.1 µM
# Procedure, shortened: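 CellTiter-Glo luminescence after 48 h compound exposure at 37 degrees C of IDH1-knockdown HT-1080 cells in 5% FBS RPMI. %Activity scaled between DMSO wells and cell-free media wells, with curves fitted and assigned curve classes.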
# Potency means the concentration at half of the fitted maximal effect; tags describe the fitted curve by direction and shape.
row,Structure (SMILES),Potency
1,Cc1ccc(OCC(=O)NNC(=O)c2cc(S(=O)(=O)N(C)C)ccc2N2CCCC2)cc1,inactive
2,NC(=O)CSc1ncnc2c1nnn2Cc1ccc(F)cc1,"inconclusive [cytotoxic, single point]"
3,Cc1occc1C(=O)O/N=C(\N)c1ccccc1,"inconclusive [cytotoxic, single point]"
4,Oc1ccc(/C=N/N=C(c2ccccc2)c2ccccc2)c(O)c1O,"inconclusive [cytotoxic, single point]"
5,CCN(CC)CCNC(=O)CCc1c(C)nc2c(c(C)nn2-c2ccc(C)cc2)c1C,"inconclusive [cytotoxic, single point]"
6,Cc1cc(NC(=O)CCNS(=O)(=O)c2cc(Br)cnc2N)ccc1Br,"inconclusive [cytotoxic, single point]"
7,CCOC(=O)Cc1c(C)nc2c(-c3ccccc3)c(C)[nH]n2c1=O,"inconclusive [cytotoxic, single point]"
8,OC[C@@H]1CN(CCN2CCOCC2)C[C@H](n2cnc3c(N4CCCC4)ncnc32)O1,"inconclusive [rising, partial curve, poor fit]"
9,COc1ccc(N2C(=O)c3ccccc3C2O)cc1 (centres undefined),inactive
10,Cc1cc(=O)[nH]c(NN=Cc2cc(Br)ccc2O)n1,"inconclusive [cytotoxic, full curve]"
11,CCc1c(O)cc2n(c1=O)-c1ccc(Cl)cc1C2(C)C,"inconclusive [cytotoxic, single point]"
12,Fc1nc(F)c(F)c(NCCCNc2c(F)c(F)nc(F)c2F)c1F,"inconclusive [cytotoxic, partial curve]"
13,O=C(NC1=C(NC2CCS(=O)(=O)C2)C(=O)c2ccccc2C1=O)c1ccccc1 (centres undefined),active: 18.4 µM
14,COc1cccc(CN2CCC2(C)C(=O)Nc2ccc3c(c2)OCO3)c1F (centres undefined),"inconclusive [cytotoxic, single point]"
15,O=c1cc(-c2cc3ccccc3o2)c2cc(O)ccc2o1,"inconclusive [cytotoxic, single point]"
16,COc1cc(CNC(C)C23CC4CC(CC(C4)C2)C3)ccc1OCC(=O)NC(C)(C)C (centres undefined),active: 23.1 µM
17,COCCNC(=O)c1cc2c(c(-c3cccc(C#Cc4ccc(OC)c(OC)c4)c3)n1)[C@H](CCO)N(S(=O)C(C)(C)C)C2 (some centres undefined),"inconclusive [cytotoxic, single point]"
18,COc1cccc(CN(C)C(=O)COc2cccc3c2OC(C)(C)C3)c1OC,inactive
19,CCn1c(SCC(=O)Nc2cccc(C)c2)nc2ccccc2c1=O,"inconclusive [cytotoxic, single point]"
